Laboratory results: PubChem BioAssay AID1345083 (National Center for Advancing Translational Sciences (NCATS), 2018)
About 6,200 (6.6%) of roughly 94,000 compounds were called active. Inconclusive means that the source gave no clear call. Such entries were picked first, then a sample of the others. The call rests on the fitted dose curve; in most records, active means well fitted inhibition curve with a large enough effect; inconclusive means small, poorly fitted or top-dose-only effect; inactive means flat fitted curve, though single readings scatter. Potencies beside an inconclusive call are fits to weak or partial responses and may not hold up.

experiment: Cytotoxic Profiling in HEK 293 Cell Line of Diverse Libraries Using Quantitative High-Throughput Screening; details: HEK 293 viability, ATP luminescence (CellTiter-Glo), 48-72 h; series mostly up to 115 µM; further: nearly all actives have a fitted effect of over 60% in size
Summary of the method: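 Read-out: CellTiter-Glo ATP luminescence. Cells: HEK 293, 250 cells/well. Exposure: 48 or 72 hr, 37 degree Celsius.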
Potency means the concentration at half of the fitted maximal effect; tags describe the fitted curve by direction and shape.

SMILES	Potency
CCCc1nnc(C[C@@H]2C[C@@H](C(C)C)[C@H](CO)C=C2C)o1	inconclusive: 126 µM [inhibitor, partial curve, poor fit]
Cc1ccc(C)c(OCc2cc(C(=O)N3CCC(N4CCSCC4)CC3)no2)c1	inconclusive: 17.8 µM [inhibitor, full curve, poor fit]
Cc1noc(C)c1S(=O)(=O)N1CCCC1c1nncn1C1CCCC1 (centres undefined)	inactive
Cc1ncccc1C(=O)N[C@@H]1CN(c2ncccn2)C[C@H]1CO	inactive
Cc1cc(C)c(NC(=O)Cn2c(=O)c(-c3noc(C)n3)c3n(c2=O)CCCC3)c(C)c1	inactive
COc1ccc(F)cc1-c1cccc(C(=O)NCC(=O)N2CCCN(C(C)=O)CC2)c1	inactive
Cc1ccc(NC(=O)N2CCC(n3cnnc3C3CC3)C2)cc1C (centres undefined)	inactive
CCCNc1ncc(CN2CCC(Cc3nn(C)c(=O)n3CC)CC2)cn1	inactive
CN(C)C(C(=O)NCc1nnc2n1CCCC2)c1cccc(F)c1 (centres undefined)	inactive
O=C(Cc1cccs1)N[C@H]1CCN2C(=O)N(c3ccc(Oc4ccccc4)cc3)C(=O)[C@@H]2C1	inconclusive: 35.5 µM [inhibitor, partial curve, poor fit]
CC1(c2cccnc2)N(CCOc2ccccc2)C(=O)OC12CCN(C(=O)c1cccc(Cl)c1)CC2 (centres undefined)	inconclusive: 50.1 µM [inhibitor, partial curve, poor fit]
COc1cccc(C(=O)N2CC(N3C(=O)c4c(c(C)nn4-c4ccccc4)C3C(C)C)C2)c1 (centres undefined)	inconclusive: 39.8 µM [inhibitor, partial curve, poor fit]
O=C(NC1CCCCC1)C1CCc2sc(C(=O)N3CCCC3)cc2C1 (centres undefined)	inconclusive: 50.1 µM [inhibitor, partial curve, poor fit]
COC(=O)C1=C(C)N=C2SC=C(CC(=O)NCc3ccco3)N2C1c1cccc(F)c1 (centres undefined)	inactive
CCCN1CCC2(Cc3ccccc3CN(C(=O)c3ccccc3)C2)C1 (centres undefined)	inconclusive: 89.1 µM [inhibitor, partial curve, poor fit]
O=C(c1ccc(C(F)(F)F)cc1)N1CCCC(c2nn(-c3ccc(F)cc3)c(=O)[nH]2)C1 (centres undefined)	inconclusive: 89.1 µM [inhibitor, single point]
O=C(NCCCc1ccccc1)C1CCCN1Cc1ccc(-c2cncnc2)cc1 (centres undefined)	inconclusive: 89.1 µM [inhibitor, single point]
O=C1c2c(nc(CNc3ccccc3Cl)n2Cc2ccccc2)NCCN1CC1CC1	active: 100 µM
COc1ncccc1-c1cc2[nH]ccc2c(C(=O)NCc2c(C)cc(C)[nH]c2=O)n1	inconclusive: 89.1 µM [inhibitor, partial curve, poor fit]
O=C(Nc1ccccc1)N[C@H]1CO[C@H]2[C@@H]1OC[C@@H]2n1nnnc1-c1ccc2c(c1)OCO2	inactive

SMILES	Potency
COCCN1CCCC[C@]2(C[C@H](C(=O)O)[C@H](c3ccco3)N2C(=O)Cc2ccccc2)C1=O	inconclusive: 89.1 µM [inhibitor, single point]
CCOc1ccc2c(n1)CCN(C(=O)C1(c3ccc(OC)cc3)CC1)C2	inconclusive: 56.2 µM [inhibitor, partial curve, poor fit]
O=C(NCc1ccc2c(c1)OCO2)C1CCN(C(=O)c2ccc(-c3cccs3)cc2)CC1	inconclusive: 44.7 µM [inhibitor, partial curve]
O=C(Nc1cccc(C(F)(F)F)c1)N[C@H]1[C@H](O)[C@@H](Sc2ccccc2)[C@@H]2OC[C@H]1O2	inconclusive: 56.2 µM [inhibitor, partial curve, poor fit]
Cn1cc(CNCC2(COc3cccnc3)C[C@@H](O)[C@@H](O)C2)c2ccccc21 (some centres undefined)	inconclusive: 56.2 µM [inhibitor, partial curve, poor fit]
O=C(CC1=CCCCC1)N1CC(c2noc(C3CCCN3CC3CC3)n2)C1 (centres undefined)	inconclusive: 89.1 µM [inhibitor, single point]
CCC1(N2CCN(C(=O)c3cccc(C(F)(F)F)c3)CC2)CCN(S(C)(=O)=O)C1 (centres undefined)	inconclusive: 89.1 µM [inhibitor, single point]
Cc1c([C@@H]2C[C@H](NC(=O)c3ccccc3)C[C@H](C(C)(C)C)O2)cnn1C	inconclusive: 50.1 µM [inhibitor, partial curve, poor fit]
Cc1sc2cc(C(=O)NCc3ccncc3)[nH]c2c1CN1CCCCC1	inconclusive: 89.1 µM [inhibitor, single point]
Cc1ccc(C(=O)N2CCN(C3CCN(CCC(C)C)C3=O)CC2)cc1 (centres undefined)	inconclusive: 89.1 µM [inhibitor, single point]
O=[S+]([O-])(c1ccccc1)N1CC2(COCCN(Cc3ccc4c(c3)CCO4)C2)C1	inconclusive: 100 µM [inhibitor, partial curve, poor fit]
COCc1noc([C@@H]2CN(Cc3cn(C)c4ccc(OC)cc34)C[C@H]2C(N)=O)n1	inconclusive: 50.1 µM [inhibitor, partial curve, poor fit]
CCc1nc2c(c(-c3ccc(OC)cc3)n1)CN(C(=O)c1ccccc1F)CC2	inconclusive: 100 µM [inhibitor, partial curve, poor fit]
Cc1cccc(-c2cccc(CN3CCCC(C(=O)N4CCOCC4)C3)c2)c1 (centres undefined)	inconclusive: 56.2 µM [inhibitor, partial curve, poor fit]
COc1ccccc1C(=O)N1CCCN(CCc2ccccc2)c2ccccc21	inconclusive: 11.2 µM [inhibitor, full curve, poor fit]
Cc1cccc(C(=O)N2CCC(Cc3n[nH]c(C)n3)CC2)c1	inconclusive: 25.1 µM [inhibitor, full curve, poor fit]
CN(C)c1cc(N2CCCC(NC(=O)c3ccc(C#N)cc3)C2)ncn1 (centres undefined)	inconclusive: 44.7 µM [inhibitor, partial curve]
COCCN[C@@H]1C[C@@H]2c3[nH]c4ccccc4c3C[C@@H](C(=O)OC)N2[C@H](c2ccc(Cl)c(F)c2)C1	inconclusive: 22.4 µM [inhibitor, full curve, poor fit]
Cc1ccccc1CN1CCC2(CC1)OC(=O)N(Cc1ccc(O)cc1)C2(C)c1ccccc1 (centres undefined)	active: 35.5 µM
CN1CC(=O)N(C2CCCCC2)Cc2c(NCCc3ccccc3)ncnc21	inconclusive: 56.2 µM [inhibitor, partial curve, poor fit]

SMILES	Potency
Cc1ncc(C(=O)NCc2ccc3[nH]c(-c4ccccc4F)c(C)c3c2)c(C)n1	inconclusive: 8.91 µM [inhibitor, full curve, poor fit]
O=S(=O)(c1ccccc1)N1CCC(CCc2nc(C3CCOCC3)no2)CC1	inconclusive: 50.1 µM [inhibitor, partial curve, poor fit]
Cc1ccc(-c2noc([C@@H]3CCCN3C(=O)c3ccc(C(C)C)cc3)n2)cc1	inconclusive: 50.1 µM [inhibitor, partial curve, poor fit]
Cn1ncc2c(C(=O)NCc3ccc4c(c3)OCO4)cc(-c3ccc(Cl)cc3)nc21	inactive
CC(=O)N1CCC(Cc2ccc(CN(C(=O)CCc3ccccc3)C3CC3)cc2)CC1	inconclusive: 11.2 µM [inhibitor, full curve, poor fit]
CC(C)NC(=O)c1ccnc(-c2cc(NC3CCCC3)nc3[nH]ccc23)c1	inconclusive: 50.1 µM [inhibitor, partial curve, poor fit]
O=C(c1cn(CC2CCCO2)nn1)N1CCN(c2cccc(C(F)(F)F)c2)CC1 (centres undefined)	inconclusive: 89.1 µM [inhibitor, single point]
CC(C)(C)c1cc(C(=O)N2CCCC2)nn2cccc12	inconclusive: 22.4 µM [inhibitor, full curve, poor fit]
Cc1ncnc(N2CCC3(CC2)CC(=O)N(CCCc2ccccc2)C3)c1C	inconclusive: 7.94 µM [inhibitor, full curve, poor fit]
COc1ccccc1CN1C(=O)COC[C@@H]1[C@H](O)c1ccc(NC(=O)c2cccnc2)cc1	inconclusive: 79.4 µM [inhibitor, single point]
O=C(Cc1cccc(Cl)c1)NC1CCN(Cc2cccc(-c3ccc(F)c(F)c3)c2)CC1	active: 20 µM
CN(C(=O)Cc1cccc(Cl)c1)C1CCCc2ccccc21 (centres undefined)	active: 100 µM
COc1ccc(-c2noc(Nc3cc(C)cc(C)c3)n2)cc1	inconclusive: 79.4 µM [inhibitor, partial curve, poor fit]
Cc1nc(C)c(C(=O)N2CCC(Cn3c(C)cnc3C3CCC3)C2)s1 (centres undefined)	inconclusive: 79.4 µM [inhibitor, single point]
COc1ccc(C(=O)N2CCC3(CC2)CC(Cc2nc(C4CC4)no2)CCO3)c(OC)n1 (centres undefined)	inconclusive: 50.1 µM [inhibitor, partial curve, poor fit]
Cc1nn(-c2ccccc2)c2c1C(C1CC1)N(C1CCN(C(=O)Cc3ccc(F)cc3)C1)C2=O (centres undefined)	active: 35.5 µM
O=C(c1ccc(Cn2ccn3nc4c(c3c2=O)CCCC4)cc1)N1CCN(c2ccccn2)CC1	inconclusive: 35.5 µM [inhibitor, full curve, poor fit]
CN1C[C@H](NCc2nccn2C)CCC[C@@H](C(=O)NC2CC2)CC1=O	inactive
COc1ccccc1-c1nnc([C@H]2CCN(Cc3ccccc3O)C2)o1	inconclusive: 100 µM [inhibitor, partial curve, poor fit]
